This note sets out measurements from patent US20100197962A1 (priority 2005, published 2010).

Molecules are shown by their SMILES.

The assay has as its system inverse tolerance induced by chronic treatment with morphine. Nature of the assay: Inverse tolerance (increased sensitivity) induced by chronic treatment with morphine, locomotor activity. The following applies: morphine 10 mg/kg s.c. given acutely only on the 7th day.

For the molecule `CN1CC[C@]23c4c5ccc(O)c4O[C@H]2[C@@H](O)C=C[C@H]3[C@H]1C5` [Morphine, morphine], the “% increase vs. physiological saline” value was found to be 80.3% and the “Total distance (cm)” value was determined as 5050 cm.
